In patent US20260083855A1 (Hoffmann-La Roche, published 2026):
Blank lines part the entries; values can stand above or below the binder they belong to.

Target: T1, hu IL2R beta-gamma-Fc (P1AD7029-002) (human, UniProt P14784 27-240; P31785 23-262)
T1 construct: Analyte in all SPR runs; also called human IL2R beta-gamma Fc; recombinant human IL2Rbeta-gamma-Fc heterodimer; not shown: Fc part and any linker of the heterodimer
T1 sequence (looked up) 1: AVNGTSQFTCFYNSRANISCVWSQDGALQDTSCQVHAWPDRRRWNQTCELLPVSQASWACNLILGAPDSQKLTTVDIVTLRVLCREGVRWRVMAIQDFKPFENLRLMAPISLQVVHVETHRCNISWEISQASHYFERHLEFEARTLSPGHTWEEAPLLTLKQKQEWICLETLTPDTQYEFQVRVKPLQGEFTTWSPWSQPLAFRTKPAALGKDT
T1 sequence (looked up) 2: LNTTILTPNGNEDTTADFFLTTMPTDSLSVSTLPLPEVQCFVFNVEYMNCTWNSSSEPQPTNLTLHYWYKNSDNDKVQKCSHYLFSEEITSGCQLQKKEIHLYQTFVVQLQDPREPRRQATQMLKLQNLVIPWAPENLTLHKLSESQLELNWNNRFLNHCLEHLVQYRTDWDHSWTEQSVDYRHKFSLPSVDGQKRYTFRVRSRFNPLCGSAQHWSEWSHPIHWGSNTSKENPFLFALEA
Assay: SPR, captured via anti-human Fc, IL2Rbg-Fc analyte, 1:1 Langmuir
Description: Bulk refractive index differences were corrected for by subtracting the response obtained on the reference flow cell 1.

Kd: 40 pM
koff: 1.07e-06 s⁻¹
kon: 41200 M⁻¹ s⁻¹
B1: FAP 4B9 IgG-huIL2v (IL2qm) (P1AE4798) (other)
light: EIVLTQSPGTLSLSPGERATLSCRASQSVTSSYLAWYQQKPGQAPRLLINVGSRRATGIPDRFSGSGSGTDFTLTISRLEPEDFAVYYCQQGIMLPPTFGQGTKVEIKRTVAAPSVFIFPPSDEQLKSGTASVVCLLNNFYPREAKVQWKVDNALQSGNSQESVTEQDSKDSTYSLSSTLTLSKADYEKHKVYACEVTHQGLSSPVTKSFNRGEC
heavy 1: EVQLLESGGGLVQPGGSLRLSCAASGFTFSSYAMSWVRQAPGKGLEWVSAIIGSGASTYYADSVKGRFTISRDNSKNTLYLQMNSLRAEDTAVYYCAKGWFGGFNYWGQGTLVTVSSASTKGPSVFPLAPSSKSTSGGTAALGCLVKDYFPEPVTVSWNSGALTSGVHTFPAVLQSSGLYSLSSVVTVPSSSLGTQTYICNVNHKPSNTKVDKKVEPKSCDKTHTCPPCPAPEAAGGPSVFLFPPKPKDTLMISRTPEVTCVVVDVSHEDPEVKFNWYVDGVEVHNAKTKPREEQYNSTYRVVSVLTVLHQDWLNGKEYKCKVSNKALGAPIEKTISKAKGQPREPQVCTLPPSRDELTKNQVSLSCAVKGFYPSDIAVEWESNGQPENNYKTTPPVLDSDGSFFLVSKLTVDKSRWQQGNVFSCSVMHEALHNHYTQKSLSLSPGK
heavy 2: EVQLLESGGGLVQPGGSLRLSCAASGFTFSSYAMSWVRQAPGKGLEWVSAIIGSGASTYYADSVKGRFTISRDNSKNTLYLQMNSLRAEDTAVYYCAKGWFGGFNYWGQGTLVTVSSASTKGPSVFPLAPSSKSTSGGTAALGCLVKDYFPEPVTVSWNSGALTSGVHTFPAVLQSSGLYSLSSVVTVPSSSLGTQTYICNVNHKPSNTKVDKKV[human IgG1 Fc with changes not written out]GGGGSGGGGSGGGGSGGGGSGGGGSAPASSSTKKTQLQLEHLLLDLQMILNGINNYKNPKLTRMLTAKFAMPKKATELKHLQCLEEELKPLEEVLNGAQSKNFHLRPRDLISNINVIVLELKGSETTFMCEYADETATIVEFLNRWITFAQSIISTLT
notes: also called FAP 4B9 IgG-huIL2v (G4S)5

Kd: 700 pM
koff: 3.02e-05 s⁻¹
kon: 40500 M⁻¹ s⁻¹
B2: FAP 4B9 IgG-huIL2v_S87A (P1AE4813) (other)
light: B1 light
heavy 1: B1 heavy 1
heavy 2: EVQLLESGGGLVQPGGSLRLSCAASGFTFSSYAMSWVRQAPGKGLEWVSAIIGSGASTYYADSVKGRFTISRDNSKNTLYLQMNSLRAEDTAVYYCAKGWFGGFNYWGQGTLVTVSSASTKGPSVFPLAPSSKSTSGGTAALGCLVKDYFPEPVTVSWNSGALTSGVHTFPAVLQSSGLYSLSSVVTVPSSSLGTQTYICNVNHKPSNTKVDKKV[human IgG1 Fc with changes not written out]GGGGSGGGGSGGGGSGGGGSGGGGSAPASSSTKKTQLQLEHLLLDLQMILNGINNYKNPKLTRMLTAKFAMPKKATELKHLQCLEEELKPLEEVLNGAQSKNFHLRPRDLIANINVIVLELKGSETTFMCEYADETATIVEFLNRWITFAQSIISTLT
notes: Immunoconjugate: anti-FAP IgG1 PG LALA knob/hole, IL2v variant on the knob heavy chain; also called P1AE4813-003

Kd: 30000 pM
koff: 0.000816 s⁻¹
kon: 27500 M⁻¹ s⁻¹
B3: FAP 4B9 IgG-huIL2v_D20T_Selectikine (P1AE4799) (other)
light: B1 light
heavy 1: B1 heavy 1
heavy 2: EVQLLESGGGLVQPGGSLRLSCAASGFTFSSYAMSWVRQAPGKGLEWVSAIIGSGASTYYADSVKGRFTISRDNSKNTLYLQMNSLRAEDTAVYYCAKGWFGGFNYWGQGTLVTVSSASTKGPSVFPLAPSSKSTSGGTAALGCLVKDYFPEPVTVSWNSGALTSGVHTFPAVLQSSGLYSLSSVVTVPSSSLGTQTYICNVNHKPSNTKVDKKV[human IgG1 Fc with changes not written out]GGGGSGGGGSGGGGSGGGGSGGGGSAPASSSTKKTQLQLEHLLLTLQMILNGINNYKNPKLTRMLTAKFAMPKKATELKHLQCLEEELKPLEEVLNGAQSKNFHLRPRDLISNINVIVLELKGSETTFMCEYADETATIVEFLNRWITFAQSIISTLT
notes: Immunoconjugate: anti-FAP IgG1 PG LALA knob/hole, IL2v variant fused to the C-terminus of the knob heavy chain; also called P1AE4799-003

Kd: 100 pM
koff: 4.23e-06 s⁻¹
kon: 34500 M⁻¹ s⁻¹
B4: FAP 4B9 IgG-huIL2v_S130A (P1AE4814) (other)
light: B1 light
heavy 1: B1 heavy 1
heavy 2: EVQLLESGGGLVQPGGSLRLSCAASGFTFSSYAMSWVRQAPGKGLEWVSAIIGSGASTYYADSVKGRFTISRDNSKNTLYLQMNSLRAEDTAVYYCAKGWFGGFNYWGQGTLVTVSSASTKGPSVFPLAPSSKSTSGGTAALGCLVKDYFPEPVTVSWNSGALTSGVHTFPAVLQSSGLYSLSSVVTVPSSSLGTQTYICNVNHKPSNTKVDKKV[human IgG1 Fc with changes not written out]GGGGSGGGGSGGGGSGGGGSGGGGSAPASSSTKKTQLQLEHLLLDLQMILNGINNYKNPKLTRMLTAKFAMPKKATELKHLQCLEEELKPLEEVLNGAQSKNFHLRPRDLISNINVIVLELKGSETTFMCEYADETATIVEFLNRWITFAQSIIATLT
notes: Immunoconjugate: anti-FAP IgG1 PG LALA knob/hole, IL2v variant on the knob heavy chain; also called P1AE4814-003

Kd: 3 pM
koff: 1.07e-07 s⁻¹
kon: 33000 M⁻¹ s⁻¹
B5: FAP 4B9 IgG-huIL2v_T133K (P1AE4816) (other)
light: B1 light
heavy 1: B1 heavy 1
heavy 2: EVQLLESGGGLVQPGGSLRLSCAASGFTFSSYAMSWVRQAPGKGLEWVSAIIGSGASTYYADSVKGRFTISRDNSKNTLYLQMNSLRAEDTAVYYCAKGWFGGFNYWGQGTLVTVSSASTKGPSVFPLAPSSKSTSGGTAALGCLVKDYFPEPVTVSWNSGALTSGVHTFPAVLQSSGLYSLSSVVTVPSSSLGTQTYICNVNHKPSNTKVDKKV[human IgG1 Fc with changes not written out]GGGGSGGGGSGGGGSGGGGSGGGGSAPASSSTKKTQLQLEHLLLDLQMILNGINNYKNPKLTRMLTAKFAMPKKATELKHLQCLEEELKPLEEVLNGAQSKNFHLRPRDLISNINVIVLELKGSETTFMCEYADETATIVEFLNRWITFAQSIISTLK
notes: Immunoconjugate: anti-FAP IgG1 PG LALA knob/hole, IL2v variant on the knob heavy chain; also called P1AE4816-003

Kd: 700 pM
koff: 3.24e-05 s⁻¹
kon: 45600 M⁻¹ s⁻¹
B6: FAP 4B9 IgG-huIL2v_L12A_L80A (P1AE4807) (other)
light: B1 light
heavy 1: B1 heavy 1
heavy 2: EVQLLESGGGLVQPGGSLRLSCAASGFTFSSYAMSWVRQAPGKGLEWVSAIIGSGASTYYADSVKGRFTISRDNSKNTLYLQMNSLRAEDTAVYYCAKGWFGGFNYWGQGTLVTVSSASTKGPSVFPLAPSSKSTSGGTAALGCLVKDYFPEPVTVSWNSGALTSGVHTFPAVLQSSGLYSLSSVVTVPSSSLGTQTYICNVNHKPSNTKVDKKV[human IgG1 Fc with changes not written out]GGGGSGGGGSGGGGSGGGGSGGGGSAPASSSTKKTQAQLEHLLLDLQMILNGINNYKNPKLTRMLTAKFAMPKKATELKHLQCLEEELKPLEEVLNGAQSKNFHARPRDLISNINVIVLELKGSETTFMCEYADETATIVEFLNRWITFAQSIISTLT
notes: Immunoconjugate: anti-FAP IgG1 PG LALA knob/hole, IL2v variant on the knob heavy chain; also called P1AE4807-003

Kd: 60 pM
koff: 2.58e-06 s⁻¹
kon: 39000 M⁻¹ s⁻¹
B7: FAP 4B9 IgG-huIL2v_L12A (P1AE4804) (other)
light: B1 light
heavy 1: B1 heavy 1
heavy 2: EVQLLESGGGLVQPGGSLRLSCAASGFTFSSYAMSWVRQAPGKGLEWVSAIIGSGASTYYADSVKGRFTISRDNSKNTLYLQMNSLRAEDTAVYYCAKGWFGGFNYWGQGTLVTVSSASTKGPSVFPLAPSSKSTSGGTAALGCLVKDYFPEPVTVSWNSGALTSGVHTFPAVLQSSGLYSLSSVVTVPSSSLGTQTYICNVNHKPSNTKVDKKV[human IgG1 Fc with changes not written out]GGGGSGGGGSGGGGSGGGGSGGGGSAPASSSTKKTQAQLEHLLLDLQMILNGINNYKNPKLTRMLTAKFAMPKKATELKHLQCLEEELKPLEEVLNGAQSKNFHLRPRDLISNINVIVLELKGSETTFMCEYADETATIVEFLNRWITFAQSIISTLT
notes: Immunoconjugate: anti-FAP IgG1 PG LALA knob/hole, IL2v variant on the knob heavy chain; also called P1AE4804-003
